Data published in patent publication US8242178B2 (University of South Carolina, priority 2007, dated 2012).

Columns and labels:
[1] = tested on: activated T cells (splenocytes + anti-CD3 mAbs); assay: Proliferation of anti-CD3 mAb-activated T cells, thymidine incorporation assay; assay type: cell-based; details: for effect of antagonist alone on T cell proliferation: in the absence of CBD
[2] = target: CB2 (Homo sapiens, UniProt P34972); details: cited from earlier work
[3] = tested on: thymus and spleen cellularity; assay: Thymic and splenic cellularity after in vivo treatment, trypan blue dye exclusion; details: 50 or 100 mg/kg body weight, after 24 hr
[4] = tested on: activated B cells (splenocytes + LPS); assay: Proliferation of LPS-activated B cells, thymidine incorporation assay; details: 48 hr
[5] = target: VR-1 (Homo sapiens, UniProt Q8NER1); details: cited from earlier work
[6] = target: cannabinoid receptor CB1 (Homo sapiens, UniProt P21554); details: cited from earlier work
UniProt P21554, sequence (P21554 whole entry): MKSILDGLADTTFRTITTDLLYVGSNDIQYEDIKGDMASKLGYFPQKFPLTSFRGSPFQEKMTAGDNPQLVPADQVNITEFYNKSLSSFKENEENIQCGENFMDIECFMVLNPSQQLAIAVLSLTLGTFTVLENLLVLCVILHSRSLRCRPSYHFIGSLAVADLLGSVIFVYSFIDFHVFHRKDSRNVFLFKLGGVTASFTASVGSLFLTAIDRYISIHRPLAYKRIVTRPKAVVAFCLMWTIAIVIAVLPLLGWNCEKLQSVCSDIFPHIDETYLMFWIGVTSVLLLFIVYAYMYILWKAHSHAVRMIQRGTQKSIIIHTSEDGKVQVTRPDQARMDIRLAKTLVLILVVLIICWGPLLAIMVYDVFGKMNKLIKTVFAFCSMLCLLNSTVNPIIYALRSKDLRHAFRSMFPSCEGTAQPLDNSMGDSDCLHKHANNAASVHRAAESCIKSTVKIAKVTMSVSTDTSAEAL

[7] = tested on: thymocytes; assay: THC- and CBD-induced thymocyte apoptosis with caspase inhibitors, CB1/CB2 or vanilloid receptor antagonists, TUNEL; assay type: cell-based; details: for induced thymocyte apoptosis in presence of VR1 antagonist capsazepine: 10 μM, 48 hours; for induced thymocyte apoptosis in presence of CB1 antagonist / induced thymocyte apoptosis in presence of CB2 antagonist / induced thymocyte apoptosis in presence of caspase 3, 8 and 9 inhibitors: about 10 μM, 24 hr, TUNEL
[8] = tested on: splenocytes; assay: Apoptosis induction in splenocytes in vitro, TUNEL; details: 24 hrs

UniProt P34972, sequence (P34972 whole entry): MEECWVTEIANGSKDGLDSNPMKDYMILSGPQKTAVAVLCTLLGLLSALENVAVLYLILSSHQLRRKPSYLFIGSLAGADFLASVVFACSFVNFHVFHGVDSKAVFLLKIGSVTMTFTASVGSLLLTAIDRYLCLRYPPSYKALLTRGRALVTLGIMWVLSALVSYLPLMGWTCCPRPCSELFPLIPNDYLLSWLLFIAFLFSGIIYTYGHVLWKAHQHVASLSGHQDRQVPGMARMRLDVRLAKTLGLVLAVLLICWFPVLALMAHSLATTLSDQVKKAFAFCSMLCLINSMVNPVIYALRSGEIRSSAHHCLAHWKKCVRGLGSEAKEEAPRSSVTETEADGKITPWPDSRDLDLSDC

## C=C(C)[C@@H]1CCC(C)=C[C@H]1c1c(O)cc(CCCCC)cc1O [CBD, cannabidiol]
[1]; CBD plus SR141716A or SR144528
  block of CBD-induced decrease in T cell proliferative response by CB1 and CB2 receptor antagonists: failed to block
[1]; about 5 μM CBD, anti-CD3 mAbs, 48 hr
  T cell proliferation: not affected
[1]; about 10 μM CBD, anti-CD3 mAbs, 48 hr
  T cell proliferative response: completely inhibited
[2]
  activity against CB2: moderate activity
[3]
  splenic cellularity: dose dependent decrease
  thymic cellularity: dose dependent decrease
[4]; about 5 μM CBD
  B cell proliferative response: completely decreased the response
[4]; about 10 μM CBD
  B cell proliferative response: completely inhibited
[5]
  VR-1 agonist potency: potency equivalent to capsaicin
[6]
  activity against cannabinoid receptor CB1: little or no activity
[7]
  induced thymocyte apoptosis in presence of VR1 antagonist capsazepine: significantly inhibited
  induced thymocyte apoptosis in presence of CB1 antagonist: completely failed to block
  induced thymocyte apoptosis in presence of CB2 antagonist: blocked it partially
  induced thymocyte apoptosis in presence of caspase 3, 8 and 9 inhibitors: involvement of caspases was noted
[8]
  CBD concentration inducing apoptosis of splenocytes (dose dependent increase): ≥ 2.5 µM

## Cc1c(C(=O)NN2CCCCC2)nn(-c2ccc(Cl)cc2Cl)c1-c1ccc(Cl)cc1 [SR141716A, reference compound]
[1]
  effect of antagonist alone on T cell proliferation: failed to exhibit a significant effect

## CCCCCc1cc(O)c2c(c1)OC(C)(C)[C@@H]1CCC(C)=C[C@@H]21 [THC, Δ9-tetrahydrocannabinol]
[7]
  induced thymocyte apoptosis in presence of VR1 antagonist capsazepine: not altered
  induced thymocyte apoptosis in presence of CB1 antagonist: significantly block
  induced thymocyte apoptosis in presence of CB2 antagonist: significantly block
  induced thymocyte apoptosis in presence of caspase 3, 8 and 9 inhibitors: significantly blocked

## SR144528 [reference compound]
[1]
  effect of antagonist alone on T cell proliferation: failed to exhibit a significant effect
